Laboratory results taken from PubChem BioAssay (NCI).
“And” between values parts separate entries of the source, which are not always exact repeats. Equal entries are not always repeated.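 Step 1: Grow cells in 96-well plates. Step 2: Expose to compound for 48 hours at 5 concentrations. Step 3: Interpolate endpoints linearly; if unreached, use highest concentration. Here, GI50 denotes the concentration required for 50% inhibition of growth. TGI is the concentration that stops growth completely.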

tested on: NCI-H322M lung; assay: growth of human tumour cells (NCI), 48 h

Row | SMILES | TGI [µM] | GI50
1 | N#Cc1cc(-c2nc3cc(F)ccc3s2)ccc1N | 4.02 | 
2 | O=C(CC1(O)C(=O)N(Cc2ccccc2)c2ccc(Br)cc21)c1ccc(C(=O)NCC2CCC3(CC2)OOC2(CCCCC2)OO3)cc1 (configuration not stated) | > 100 | 23.6 µM
3 | NC(Cc1ccc(OCc2ccccc2)cn1)C(=O)OCc1ccccc1 (configuration not stated) | > 100 | 
4 | CC(=O)O[C@H]1C(=O)[C@@]2(C)[C@H]([C@H](OC(=O)c3ccccc3)[C@]3(O)C[C@H](OC(=O)[C@H](O)[C@@H](NC(=O)c4ccoc4)c4ccccc4)C(C)=C1C3(C)C)[C@]1(OC(C)=O)CO[C@@H]1C[C@@H]2O | > 100 | 
5 | O=C1C=Cc2c(-c3ccccc3)oc3cccc1c23 | > 100 | 
6 | CC12CC[C@@H]3c4cc5c(cc4CC[C@H]3[C@@H]1CCC2O)oc1cc(F)ccc15 (some centres not stated) | 48.2 | 16.2 µM
7 | Cc1ccc(C2C(Cl)C(=O)N2n2cnc3ccccc3c2=O)cc1 (configuration not stated) | > 100 | 
8 | CC(Cc1ccc(O)cc1)NCC(O)c1ccc(O)c(O)c1 (configuration not stated) | > 100 | 
9 | O=C(Cc1nc2cccnc2nc1/C=C(\O)c1ccccc1)c1ccccc1 | > 100 | 
10 | CCN1CC2(COC)C(O)CC(OC)C34C5CC6(O)C(OC)C=C(C5C6OC(=O)c5ccc(OC)c(OC)c5)C(C(OC)C23)C14 (configuration not stated) | > 7.5 | 
11 | COc1ccc(C(=O)C2C(C#N)C(C#N)C3C=Cc4ccccc4N32)cc1 (configuration not stated) | > 100 | 6.31 µM
12 | COc1ccc(OC)c(Nc2nc3ccccc3c3c2-c2ccc(OC)cc2C3=O)c1 | > 100 | > 100 µM
13 | CO/N=C/C=C\C(=O)N/C=C/C[C@H]1/C=C/[C@H](O)/C=C\C=C\c2cccc(O)c2C(=O)O1 | > 100 | 1.48 µM and 1.45 µM
14 | C/C1=C/C2OC(=O)C3(C)C2C(CC2(C)OC1=CC2=O)OC3(O)C(C)C (configuration not stated) | > 100 | 
15 | COc1ccc(C(=O)/C=C/c2ccc(OCc3ccc(Cl)cc3)cc2)cc1OC | > 1000 | 196 µM
16 | O=C1N=C(c2c(-c3[nH]c(=O)c4ccc(Br)cc4c3O)c(O)c3ccccc3c2O)C(=O)c2cc(Br)ccc21 | > 16.7 | 0.529 µM
17 | C[C@@H]1CCC2[C@@H](C)[C@@H](OC3CCC(O)CC3)OC3O[C@@]4(C)CCC1[C@]32OO4 (some centres not stated) | > 100 | > 100 µM
18 | CC(=O)NC1C(O)CC(OCCCSCCN)(C(=O)O)OC1C(O)C(O)CO (configuration not stated) | > 100 | 
19 | COc1ccc2nc(NC(=O)COc3cc(/C=C\c4cc(OC)c(OC)c(OC)c4)ccc3OC)sc2c1 | > 100 | > 100 µM
20 | COc1cccc(NC(=O)c2c(SC)c(C#N)c(=O)n(N)c2N)c1 | > 100 | 
21 | OC(c1ccc(F)cc1)(c1ccc(F)cc1)C1CC1 | > 100 | 
22 | Clc1ccc(C2c3ccccc3-c3nc4ccccc4n32)cc1 (configuration not stated) | > 69.7 | 
23 | Cc1ccc(S(=O)(=O)Oc2ccccc2-c2ccccc2)cc1 | > 100 | 4.8 µM

Row | SMILES | TGI [µM] | GI50
24 | CC#C[C@@]1(O)CCCCC1O (some centres not stated) | > 100 | 
25 | CCN(CC)CCCNc1ccc2ncn3c4ccc(O)cc4c(=O)c1c23 | 15.4 | 1.54 µM
26 | Nc1nc(Cl)c(/C=N\O)c(NCC2(CO)CC(=O)C2)n1 | > 100 | 
27 | O=C(O)c1cc2cc(OCc3ccccc3)ccc2[nH]1 | > 100 | 
28 | CSC1(C)CC2C(CC1N1CCOCC1)C2(C)C (configuration not stated) | > 100 | 
29 | Cn1c(=O)n2c(=O)n(C)c(=O)n2c1=O | > 100 | 
30 | COC(=O)c1c(C(=O)OC)c2ccc(-c3ccc(Cl)cc3)nn2c1C(=O)c1ccc([N+](=O)[O-])cc1 | > 100 | 
31 | CCOC(=O)C1C=C1C(C)(C)O (configuration not stated) | > 10 | 
32 | N#CCCN1C/C(=C/c2ccccc2)C(=O)/C(=C/c2ccccc2)C1 | 29.8 | 15.7 µM
33 | COc1cc2c3c(n(CCCN(C)C)c(=O)c2cc1OC)-c1cc2c(cc1C3=O)OCO2 | 2.66 | 1.26 µM
34 | C=CCN1C(=O)C(=O)N(CC=C)C(=O)C1=O | > 100 | 
35 | COC(O)C(=O)c1c2c(cc3c1CCC3)CCCC2 (configuration not stated) | 22.2 | 
36 | N#CC1Sc2ccccc2-n2cccc21 (configuration not stated) | > 100 | 
37 | COc1nc(SC)nc2c1C(O)n1c(nc3ccccc31)S2 (configuration not stated) | 65.4 | 
38 | C=C1C(=O)C2=C[C@H]1C[C@H](O)C(=O)[C@]1(C)CCCC(C)(C)[C@H]1C[C@H]2O | 29.7 | 
39 | c1cc2ccc3cc2cc1CNCCN1CCNCc2ccc4ccc(cc4c2)CNCCN(CCNC3)CCNCc2ccc3ccc(cc3c2)CNCC1 | 7.84 | 2.35 µM
40 | COc1ccc(C2C(Cl)C(=O)N2NC(=O)c2ccccc2O)cc1 (configuration not stated) | > 100 | 
41 | O=S(=O)(Cc1nc2ccccc2s1)c1nc2ccccc2s1 | 31.4 | 
42 | CC1(SCC(N)C(=O)O)CC(=O)NC1=O (configuration not stated) | > 100 | 
43 | O=c1cc(N2CCOCC2)oc2c(-c3ccc4c(c3)OCCO4)csc12 | 11.3 | 0.471 µM
44 | O=C(N/N=C\c1cc(Cl)ccc1O)c1ccncc1 | > 100 | 3.54 µM
45 | CCCCCCC(C)c1ccc2c(c1)C(=O)c1nc3ccncc3c(=O)n1-2 (configuration not stated) | > 31.6 | 
46 | N#Cc1c(C#N)c(SSc2c(C#N)c(C#N)c(N)n2-c2ccc(F)cc2)n(-c2ccc(F)cc2)c1N | 31.2 | 
